Test results as given in PubChem BioAssay AID624202 (National Center for Advancing Translational Sciences (NCATS), 2012).
Among all 380,000 compounds or so, about 4,000 (1.1%) were called active. Inconclusive means that the source gave no clear call. Such entries were picked first, then a sample of the others. The call rests on the fitted dose curve; in most records, active means well fitted activation curve with a large enough effect; inconclusive means small, poorly fitted or top-dose-only effect; inactive means no such curve, though single readings can be large or run the other way. Potencies beside an inconclusive call are fits to weak or partial responses and may not hold up.

assay: qHTS Assay to Identify Small Molecule Activators of BRCA1 Expression; settings: MCF7-BRCA1-FFLuc reporter, luminescence, 48 h; activation: at 46.1 µM (top of the series), scaled: vehicle 0%, 10 µM genistein 100% unless noted; further: nearly all actives have a fitted effect of over 80% in size
How it was run: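 Cells: MCF7-BRCA1-FFLuc, 2000/well. Exposure: 48 h, 37 °C, 5% CO2. Read: luminescence, 15 min post-substrate. Controls: genistein 10 microM (maximal activation), DMSO (neutral).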
Potency means the concentration at half of the fitted maximal effect; tags describe the fitted curve by direction and shape.

**Q.** Which activation does the source give for `Cc1ccc([C@H]2C[C@@H](n3cc(C4CC4)nn3)[C@H](O)CN2CC2CCCCC2)cc1` here?
**A.** The activation was inconclusive: 75% [activator].

**Q.** With `O=C(CCc1ccccc1)Nc1ccc2c(c1)OCCO2` as the compound, how does the Potency read?
**A.** The Potency was active: 11.2 µM.

**Q.** For `CCn1nc2cc(C(=O)NCCc3cccs3)ccc2c1OC`, which Potency is on record?
**A.** Its Potency is inconclusive: 2.82 µM [activator, full curve, poor fit].

**Q.** For `CN1CCN(c2ccc(NC(=O)c3ccc4c(c3)OCCO4)cc2Cl)CC1`, which Potency is on record?
**A.** The Potency was inconclusive: 1.26 µM [activator, full curve, poor fit].

**Q.** For `CCCCn1nc(C(=O)N2CCc3ccccc32)c2ccccc2c1=O`, which “activation” value is on record?
**A.** The value was inactive: -9.5%.

**Q.** For `CCN1CCN(C(=O)c2ccccc2N(Cc2ccccc2)S(=O)(=O)c2ccc(C)cc2)CC1`, which “activation” value is on record?
**A.** The value was inactive: -30.9%.

**Q.** With `CCC(C)c1ccc(NC(=O)C2CC2)cc1` (stereo unspecified) as the compound, how does the Potency read?
**A.** Its Potency is inconclusive: 12.6 µM [activator, partial curve, poor fit].

**Q.** For `CCC(C)(C)C1CCC2(CC1)NC(=O)N(CC(=O)NCCc1ccc(OC)c(OC)c1)C2=O` (stereo unspecified), which “activation” value is on record?
**A.** The value was inactive: -33.6%.

**Q.** For `COCC1CCCN(C(=O)c2cc(COc3ccc(C(C)=O)cc3)on2)C1` (stereo unspecified), which Potency is on record?
**A.** The Potency was inconclusive: 11.2 µM [activator, partial curve, poor fit].

**Q.** For `N#C/C(=C\c1ccc(OCc2ccc(C(=O)O)cc2)cc1)C(=O)N1CCOCC1`, which activation is on record?
**A.** The activation was inconclusive: -80.3% [activator].

**Q.** Which Potency does the source give for `CC(C)(C)c1ccc(-c2noc(-c3ccno3)n2)cc1` here?
**A.** Its Potency is inconclusive: 2.24 µM [activator, full curve, poor fit].

**Q.** For `CCC(=O)Nc1sc(C(=O)Nc2ccccc2F)c(C)c1C(=O)OC`, which Potency is on record?
**A.** The Potency was inconclusive: 0.631 µM [activator, full curve, poor fit].

**Q.** Which Potency does the source give for `COc1ccc(-n2cc3ccc([N+](=O)[O-])cc3n2)cc1` here?
**A.** Its Potency is inconclusive: 1 µM [activator, full curve, poor fit].

**Q.** With `Cc1ccccc1OCc1nnc(SCC(=O)Nc2ccc3c(c2)oc2ccccc23)n1C` as the compound, how does the Potency read?
**A.** The Potency was inconclusive: 11.2 µM [activator, partial curve, poor fit].

**Q.** Which Potency does the source give for `CCOC(=O)c1c(C)[nH]c(C(=O)OCc2ccccc2)c1C` here?
**A.** Its Potency is inconclusive: 1.58 µM [activator, full curve, poor fit].

**Q.** With `COc1ccc2c(=O)c(-c3ccccc3)c(C)oc2c1` as the compound, how does the Potency read?
**A.** The Potency was inconclusive: 12.6 µM [activator, partial curve, poor fit].

**Q.** With `C=CCNC(=O)c1ccc2nc(Cc3ccc(OC)cc3)oc2c1` as the compound, how does the Potency read?
**A.** The Potency was inconclusive: 1.78 µM [activator, partial curve, poor fit].

**Q.** Which Potency does the source give for `O=C(Nc1cnn(C23CC4CC(CC(C4)C2)C3)c1)c1cnn2cccnc12` here?
**A.** The Potency was inconclusive: 0.501 µM [activator, full curve, poor fit].

**Q.** For `O=C(Nc1cccnc1)c1noc2c1CCCC2`, which Potency is on record?
**A.** Its Potency is inconclusive: 10 µM [activator, partial curve, poor fit].

**Q.** Which “activation” value does the source give for `O=C(COc1cccc(Br)c1)N/N=C1\CCCc2ccccc21` here?
**A.** Its value is inactive: 0%.

**Q.** Which Potency does the source give for `O=C(NCSc1ccccc1)c1ccccc1` here?
**A.** Its Potency is inconclusive: 2.82 µM [activator, full curve, poor fit].

**Q.** With `COc1ccc(NC(=O)C2=Cc3cccc(OC)c3OC2)cc1` as the compound, how does the Potency read?
**A.** The Potency was inconclusive: 7.94 µM [activator, partial curve, poor fit].

**Q.** For `O=C(Nc1cccc(Cl)c1)Nc1nnc([C@H]2C[C@H](O)[C@@H](CO)O2)s1`, which Potency is on record?
**A.** Its Potency is inconclusive: 15.8 µM [activator, partial curve, poor fit].

**Q.** With `CN1CCc2nc(SCC(=O)Nc3ccc(Cl)cc3)c(C#N)cc2C1` as the compound, how does the Potency read?
**A.** Its Potency is inconclusive: 6.31 µM [activator, partial curve, poor fit].

**Q.** Which Potency does the source give for `CC(C)N1C(=O)S/C(=C\c2ccc(-c3ccc(Cl)c(C(=O)O)c3)o2)C1=O` here?
**A.** The Potency was inconclusive: 1 µM [activator, full curve, poor fit].

**Q.** Which Potency does the source give for `O=C(NCCCN1CCCC1=O)Nc1ccc(F)c(Cl)c1` here?
**A.** The Potency was inconclusive: 2.82 µM [activator, single point].

**Q.** Which Potency does the source give for `C(=NOCCc1ccccc1)c1cccnc1` here?
**A.** Its Potency is inconclusive: 22.4 µM [activator, single point].

**Q.** Which “activation” value does the source give for `O=C(Nc1cccc2ccccc12)NC1CCCCC1` here?
**A.** Its value is inactive: -5.78%.

**Q.** For `O=C(Nc1nnc(-c2ccncc2)s1)C1CCCO1` (stereo unspecified), which “activation” value is on record?
**A.** The value was inactive: 32.6%.

**Q.** For `COc1ccc(NC(=O)c2ccc(Oc3ncccn3)cc2)cc1`, which Potency is on record?
**A.** The Potency was active: 8.91 µM.

**Q.** Which Potency does the source give for `COc1ccc2nc(/N=C(\N)NC(=O)C(C)(C)C)nc(C)c2c1` here?
**A.** Its Potency is active: 11.2 µM.

**Q.** With `Cc1ccc2c(Cl)c(C(=O)NC3CC3)sc2c1` as the compound, how does the Potency read?
**A.** The Potency was active: 2.82 µM.

**Q.** With `CCC(C)NCc1ccc(C(=O)OC)o1` (stereo unspecified) as the compound, how does the “activation” value read?
**A.** Its value is inactive: 13.3%.

**Q.** For `Cc1ccc2nc(-c3ccc(Cl)cc3)c(Cc3ccccc3C(F)(F)F)n2c1`, which Potency is on record?
**A.** Its Potency is inconclusive: 15.8 µM [activator, partial curve, poor fit].

**Q.** With `COC(=O)Cn1ncc2c(C)n(Cc3ccccc3)c(C)c2c1=O` as the compound, how does the Potency read?
**A.** The Potency was inconclusive: 12.6 µM [activator, partial curve, poor fit].

**Q.** Which “activation” value does the source give for `O=C(CCCN1C(=O)/C(=C/c2ccccc2Cl)SC1=S)NNC(=O)c1ccccc1Cl` here?
**A.** Its value is inactive: -91.7%.

**Q.** With `Clc1ccccc1CSc1nnc(-c2ccncc2)o1` as the compound, how does the Potency read?
**A.** Its Potency is active: 8.91 µM.

**Q.** Which “activation” value does the source give for `O=C(CCCN1C(=O)/C(=C\c2cccs2)SC1=S)NNC(=O)c1cccnc1` here?
**A.** The value was inactive: -30.1%.

**Q.** For `O=C(N/N=C/c1ccc(C(F)(F)F)cc1)c1ccc(O)cc1`, which Potency is on record?
**A.** The Potency was inconclusive: 35.5 µM [activator, single point].

**Q.** With `Cc1csc(NC(=O)CSc2ccccc2F)n1` as the compound, how does the Potency read?
**A.** The Potency was inconclusive: 11.2 µM [activator, partial curve, poor fit].

**Q.** For `CC(=NNC(=O)c1cccc(S(=O)(=O)N2CCOCC2)c1)c1ccccc1`, which Potency is on record?
**A.** Its Potency is inconclusive: 15.8 µM [activator, partial curve, poor fit].

**Q.** With `CC(=O)N1CCc2cc(N=NC3=C(O)CC(C)(C)CC3=O)ccc21` as the compound, how does the Potency read?
**A.** Its Potency is inconclusive: 14.1 µM [activator, partial curve, poor fit].

**Q.** Which Potency does the source give for `Cc1nc2c3cnn(-c4ccc(C)c(C)c4)c3ncn2n1` here?
**A.** The Potency was inconclusive: 2.24 µM [activator, full curve, poor fit].

**Q.** With `Cc1[nH]n(-c2cccc(Cl)c2)c(=O)c1C=NCc1ccco1` as the compound, how does the Potency read?
**A.** The Potency was active: 11.2 µM.

**Q.** With `Cc1ccc2c(CN3CCCCC3)cc(=O)oc2c1` as the compound, how does the Potency read?
**A.** The Potency was inconclusive: 12.6 µM [activator, partial curve, poor fit].

**Q.** Which Potency does the source give for `O=C(Cn1c(=S)nc2ccccn21)N1CCc2ccccc2C1` here?
**A.** The Potency was inconclusive: 11.2 µM [activator, partial curve, poor fit].

**Q.** Which Potency does the source give for `CC(C)(C)c1nnc(NC(=S)Nc2ccccc2)s1` here?
**A.** Its Potency is active: 2.82 µM.

**Q.** With `Nc1nc(OCc2ccccc2)c2[nH]cnc2n1` as the compound, how does the “activation” value read?
**A.** Its value is inactive: 9.11%.

**Q.** For `CN(C)c1cccc(NC(=O)c2cccc3c(-c4ccc(F)c(F)c4)coc23)c1`, which Potency is on record?
**A.** The Potency was inconclusive: 0.562 µM [activator, full curve, poor fit].

**Q.** With `O=C(/C=C/Nc1ccc(Nc2ccccc2)cc1)c1cccs1` as the compound, how does the Potency read?
**A.** The Potency was inconclusive: 1.78 µM [activator, full curve, poor fit].

**Q.** With `Cc1ccc(S(=O)(=O)Cc2cc(F)c([N+](=O)[O-])cc2[N+](=O)[O-])cc1` as the compound, how does the “activation” value read?
**A.** The value was inactive: -93%.

**Q.** With `Fc1ccccc1-c1nc(-c2ccc(-c3nn[nH]n3)cc2)no1` as the compound, how does the Potency read?
**A.** Its Potency is inconclusive: 7.08 µM [activator, partial curve, poor fit].

**Q.** For `COc1ccc2c(c1)[nH]c1c(N3CCN(Cc4ccc5c(c4)OCO5)CC3)ncnc12`, which “activation” value is on record?
**A.** The value was inactive: -77.8%.

**Q.** For `Cc1ccnc(NC(=O)c2ccc(Br)s2)c1`, which Potency is on record?
**A.** The Potency was inconclusive: 1 µM [activator, full curve, poor fit].

**Q.** Which Potency does the source give for `O=C(/C=C/c1cccc(F)c1)N1CCc2ccccc21` here?
**A.** The Potency was inconclusive: 0.501 µM [activator, full curve, poor fit].

**Q.** Which Potency does the source give for `Cc1csc(C(C#N)C(=O)c2cc3ccccc3o2)n1` (stereo unspecified) here?
**A.** The Potency was inconclusive: 2 µM [activator, partial curve, poor fit].

**Q.** With `Cn1c2ccccc2c(=O)c2cc(C#Cc3cccc(N)c3)ccc21` as the compound, how does the Potency read?
**A.** The Potency was inconclusive: 2.82 µM [activator, full curve, poor fit].

**Q.** For `Cc1cc(C(=O)CN2C(=O)C(=O)N(CC(C)C)C2=O)c(C)n1C1CC1`, which Potency is on record?
**A.** The Potency was active: 3.16 µM.

**Q.** For `CC(C)c1ccc(Nc2n[nH]c(=S)s2)cc1`, which Potency is on record?
**A.** Its Potency is active: 2.51 µM.

**Q.** For `CCNC(=O)C(=O)c1c(-c2ccccc2)[nH]c2ccccc12`, which “activation” value is on record?
**A.** Its value is inactive: -22.8%.

**Q.** For `CC(=O)Nc1ccc2oc(-c3ccccc3Br)nc2c1`, which Potency is on record?
**A.** Its Potency is inconclusive: 0.631 µM [activator, full curve, poor fit].

**Q.** Which Potency does the source give for `N/C(=N\OC(=O)c1cccc(Br)c1)c1ccncc1` here?
**A.** The Potency was active: 14.1 µM.

**Q.** With `CCCNc1nc(C)nc2c1cnn2CCc1ccccc1` as the compound, how does the Potency read?
**A.** Its Potency is inconclusive: 14.1 µM [activator, single point].

**Q.** With `N/C(=N\OC(=O)c1ccncc1)c1cccc([N+](=O)[O-])c1` as the compound, how does the Potency read?
**A.** Its Potency is active: 7.94 µM.

**Q.** For `Fc1ccc(-n2nnc(-c3nccs3)n2)cc1`, which Potency is on record?
**A.** The Potency was inconclusive: 3.16 µM [activator, partial curve, poor fit].

**Q.** With `O=[N+]([O-])c1ccc(C(O)CSC(=S)N2CCCCC2)cc1` (stereo unspecified) as the compound, how does the Potency read?
**A.** Its Potency is active: 3.98 µM.

**Q.** With `Cc1cccc(-c2noc(CCC(=O)N3CCN(c4cc(C)ccc4C)CC3)n2)c1` as the compound, how does the Potency read?
**A.** Its Potency is inconclusive: 14.1 µM [activator, single point].

**Q.** Which Potency does the source give for `COc1cc(SC)ccc1C(=O)NCCOc1ccccc1Cl` here?
**A.** The Potency was active: 7.94 µM.

**Q.** With `O=C(Cc1ccccc1[N+](=O)[O-])OCC(=O)c1c[nH]c2ccccc12` as the compound, how does the Potency read?
**A.** The Potency was inconclusive: 35.5 µM [activator, single point].

**Q.** For `CCOc1ccc(NC(=O)c2cccnc2SC)cc1`, which Potency is on record?
**A.** The Potency was inconclusive: 11.2 µM [activator, partial curve, poor fit].

**Q.** Which Potency does the source give for `COc1ccc(OC)c(/C=N/N(C)c2ccccc2)c1` here?
**A.** Its Potency is inconclusive: 8.91 µM [activator, partial curve, poor fit].
